Drawing on paper PMC12136788, this text covers binding signal for 22 molecules.

To fix the notation:
T1: UNK ZnF1-3 (human, UniProt Q9C0B0 31-174)
T1 sequence: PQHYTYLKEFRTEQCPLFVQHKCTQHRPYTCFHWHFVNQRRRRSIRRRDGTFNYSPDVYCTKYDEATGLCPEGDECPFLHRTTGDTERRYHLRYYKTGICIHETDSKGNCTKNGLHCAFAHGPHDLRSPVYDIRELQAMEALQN

B1: chr2:48026839:48026840:+_ENSG00000116062_ENST00000540021|hu_hu|hu_hu_hu_mus_False|58_58 (ssRNA)
RNA: GGGAGUUCUACAGUCCGACGAUCAUAGUGAGCCACUAGCGUCCUAAAUCUGGAACAGUGGCGGUCAUCCGAAAACUGACCUAUGAAAAACUUGCCCAGUGAAGUGUCCACAAAGCAAACACCAUACACACGAGUGUGACCAGACAACAGAGGAUUGAGCAUCA
B2: 46090527_46090647_3540_3pUTR_ENSMUSG00000015882_ENSMUST00000045586|mouse|control|control (ssRNA)
RNA: GGGAGUUCUACAGUCCGACGAUCAGUUUUUUUUGUUUGUUUGUUUUUUGUCACUGCAAAGACAAGGUUGAGCUUGAGAAGUUUGUAGCUGUCUUGCAUUCGUUUAGUCAUUAGUAUUGGACCUUGCAUGUUUUCUUAGAUUAACAACAGAGGAUUGAGCAUCA
B3: chr4:144460044:144460045:+_ENSG00000153147_ENST00000283131|hu_mus|hu_hu_hu_mus_False|18_88 (ssRNA)
RNA: GGGAGUUCUACAGUCCGACGAUCACGGUCCAUAGCCUGAAGAUCAACUUGGGGAUUCCAAUCUGAGUCAUAUAAAAUGACUACAUCAGCAGUUGCAAGAUUGAUGCCCAGACCACCAGCACGCGUGCUUAGCAUAAAUACAAACAACAGAGGAUUGAGCAUCA
B4: 39667289_39668368_1577_CDS_ENSG00000130669_ENST00000435673|human|control|control (ssRNA)
RNA: GGGAGUUCUACAGUCCGACGAUCGGGCUCUCCGUCCACCAUCUCAAUCACCAUUAUCCCCAGCGACCAGAUGUCUACCUCUGGCCCGUAGGGAAGGCGGGAGAUGAGCUCUGGGGCCAUCCAGUAGGGCGUGCCGACCAGCGACAACAGAGGAUUGAGCAUCA
B5: chr3:183368427:183368428:+_ENSG00000114796_ENST00000454652|hu_hu|motif|central (ssRNA)
RNA: GGGAGUUCUACAGUCCGACGAUCAACCAACAUUUCUCGGCUUUCCCUGUGGUCAUUACAAAACAUAGCUCUGAAGUAGCUGCGGCAGGCUGAGAGCACAGCUCUAUGGCAAGGAAAUUCUUUUCCUUCCACACAAAUGAUAACCAACAGAGGAUUGAGCAUCA
B6: chrX:132779699:132779700:+_ENSMUSG00000042712_ENSMUST00000048687|mus_hu|FALSE|FALSE (ssRNA)
RNA: GGGAGUUCUACAGUCCGACGAUCAAAUUCCCGCAAGUUUGACUCCUUCCACGGGCCUCAGGGACCACCGCCUGCGCUGCUGAAGGAAGCUGGUAUCCAGACGGGAACAAGGACCAGAUUACCAGGACUUCUGCACACGUCGACCAACAGAGGAUUGAGCAUCA
B7: 2694593_2697051_1340_CDS_ENSG00000101596_ENST00000320876|human|control|control (ssRNA)
RNA: GGGAGUUCUACAGUCCGACGAUCAAUAUAGUAGUGAUAAAUAUGCGCUAACUGUCGUGUCCAAAGGUGGAAAUAAUUUUUCAAGUACUGUAUGUGUUCUGGUUGUACCCCUGUGAUAACCACAGCAGUAAAGCUAUCUUUUUCCAACAGAGGAUUGAGCAUCA
B8: 72380402_72380522_416_3pUTR_ENSMUSG00000037674_ENSMUST00000093820|mouse|control|control (ssRNA)
RNA: GGGAGUUCUACAGUCCGACGAUCGGAGGAGGAGGGGGAGGAAGAGGAGGAAGGAAGGAAGCUGGAUAAGCUAGGCCUAUACCCCAGGGCUCGAGUGAGUCGCUUUCUCCGGCCGCCUGAGGGACAUCCCCGGGGAGACCGCGCCAACAGAGGAUUGAGCAUCA
B9: chr5:50689391:50689392:+_ENSG00000016082_ENST00000230658|hu_mus|motif|central (ssRNA)
RNA: GGGAGUUCUACAGUCCGACGAUCAAUAGGACUGGCUACCAUGCUGUUGGGUGUAUCUGGGAGCUGCGAGGACAUCGAUGCGGCUUCACUGCCAGUAGAAUUAGAGCCUGGUCCUCCUUCUGAAAAAUUGACCAGUUGCUGAAACAACAGAGGAUUGAGCAUCA
B10: chr18:56819859:56819860:+_ENSG00000166562_ENST00000588875|hu_mus|hu_hu_hu_mus_True|38_88 (ssRNA)
RNA: GGGAGUUCUACAGUCCGACGAUCAACCUUGAUUACUCUGUGAACUAUUGGAAUGUCUCUUCCUUCAACCUUAAAAACAACUAUUUCACCAGCUCUGAUUGGGUCUUCCCGGAAAUUCGUGAGGAACAGCAGAUCUCCUCUGUGCAACAGAGGAUUGAGCAUCA
B11: chr20:32439910:32439911:+_ENSG00000101421_ENST00000217402|hu_hu|FALSE|FALSE (ssRNA)
RNA: GGGAGUUCUACAGUCCGACGAUCAGGGACUGUUUCGGGUCCACUGAUUUCCAGCAAAUUCUUGUCUAGUUCCUCCUGUUCUAGUUCUUCUAAUUCCGCCAUGAGCUCAUCCUCGUCAAACUCUUCUCCAAACCCUACAGGUUUCAACAGAGGAUUGAGCAUCA
B12: chr1:151374018:151374019:+_ENSG00000159377_ENST00000290541|hu_hu|motif|central (ssRNA)
RNA: GGGAGUUCUACAGUCCGACGAUCAAAGCCACUGAUCAUGUGGGCAAUAUCCCAGUUGGUCUCUGUAGACAAUGGUCCCUCGGUUUCAACACCUUUUUCGGUGACAGUGGCGAUUUGAAACCGGUUGUAAGAACGGGCAUCUCGCAACAGAGGAUUGAGCAUCA
B13: chr2:73037555:73037556:-_ENSMUSG00000027108_ENSMUST00000028517|mus_hu|FALSE|FALSE (ssRNA)
RNA: GGGAGUUCUACAGUCCGACGAUCAAAAAGCAUUCCCCAGGCCCUGCCCAUUGUGAGCUCCUUUCACAAGGCCAGCAAUAUCCACCACAUUUAGAAAGGCAGGAAUUUUGCUUGCUGGUUUGUGGUAUUGACAAAGAAAGUCAACAACAGAGGAUUGAGCAUCA
B14: chr18:58099821:58099822:+_ENSMUSG00000024597_ENSMUST00000115366|mus_mus|FALSE|FALSE (ssRNA)
RNA: GGGAGUUCUACAGUCCGACGAUCAUUUUCUUUUUUUGGCUUGGUGUUGAUAUCUCCAAGGACCAUGAUAUCAGAGAAGUCUAUCCGGAAUUUACUCAAUAAAGUAGCCAUCGCUCUCCGGUCAUGGUCUAUUCUGUUUAUUUUCAACAGAGGAUUGAGCAUCA
B15: chr1:122009976:122009977:-_ENSMUSG00000026385_ENSMUST00000027634|mus_hu|motif|central (ssRNA)
RNA: GGGAGUUCUACAGUCCGACGAUCUUUAAUUGAUUUCAGAUAAAAACUACUCAAGGAAAGUCAGUAAUCGUUUUAGCCCCGGAUCUGUUAGAGCCGUAUGGUGAGCAGCCUUGAGUAGCUGGUUUAACUGGUUAUUUUCCCGAACAACAGAGGAUUGAGCAUCA
B16: chr1:95363388:95363389:-_ENSG00000117519_ENST00000538964|hu_hu|motif|central (ssRNA)
RNA: GGGAGUUCUACAGUCCGACGAUCUCUGGGGUAGUCAUCCUGGUACUCGCCAUGAUACUCAUCAGGGUAUUCUGCCUGAUAAUCACGGUCACUGAUUUCCGAACCAUUUGUUCCUGUUCCUUGGCUUCCGUUGUGAAUGACAGGCAACAGAGGAUUGAGCAUCA
B17: chr9:15470827:15470828:-_ENSG00000164985_ENST00000397519|hu_mus|FALSE|FALSE (ssRNA)
RNA: GGGAGUUCUACAGUCCGACGAUCGUCAAGGGCACACCUGCCCCAGUUUUCAAGAACGUAAUAGCUACUCCAGUUUAAUACCUAGCUUCAAAACAAAAUGAUUUUCAUAUUCUCUAAGUGAGAUAAUGUACAGUCGCCGUCUUCCAACAGAGGAUUGAGCAUCA
B18: chr14:32562060:32562061:+_ENSG00000100852_ENST00000539826|hu_mus|FALSE|FALSE (ssRNA)
RNA: GGGAGUUCUACAGUCCGACGAUCCUUUAUUUGUGAUUCAUUAAAUUUACGAGGAUAUGUACCAGUAGGUACGUCUACAAAAGGACACUGCAAUUUGUUGGCCAACUGCUGACCCUGGUGCCUGAGAAUUGGUAGAUUUUUACUCAACAGAGGAUUGAGCAUCA
B19: 94682084_94682457_2662_CDS_ENSMUSG00000038902_ENSMUST00000107270|mouse|control|control (ssRNA)
RNA: GGGAGUUCUACAGUCCGACGAUCCAUCCAACUGAGCCCCCGUGGUAAGAUGUUGCUAGAUCUGUGGGAGGGGUUGAACACUAAAUGCUUGGCCAUCGCAUCUCCCACGGAGGUAGCAAAGGUACACGAAGUGCAGGCCAGCUUCAACAGAGGAUUGAGCAUCA
B20: chr8:104063288:104063289:+_ENSG00000155097_ENST00000518738|hu_hu|FALSE|FALSE (ssRNA)
RNA: GGGAGUUCUACAGUCCGACGAUCUAUAUAAGUAACCAAGUCCACUCCAUUAGCCAACAGAUUCUCUUGAACUUUGUCUUUGCUAUCUUCCAAUACAUCAGCCAUGUAUUGAGCUACUUUCUUAACCACUCCUUCUACAAAUGCCAACAGAGGAUUGAGCAUCA
B21: 87966449_87966569_3205_CDS_ENSG00000188994_ENST00000369577|human|control|control (ssRNA)
RNA: GGGAGUUCUACAGUCCGACGAUCAACAAAUGCAAUACUUUCUAAUGUCUUAAGAGGUAAAUUAUAAAGAUUGGAUGAUGUUUUAACAUUAUCUCCACAUUCAAAUUUGGAAGUUGGUAAAUUGUUUUGAAAUGCUGCCUGAUUCAACAGAGGAUUGAGCAUCA
B22: chr17:38556828:38556829:-_ENSG00000131747_ENST00000423485|hu_mus|motif|central (ssRNA)
RNA: GGGAGUUCUACAGUCCGACGAUCAGUCCACGUUCGGAUGGGAAGCUCUGAGAUUUCAAUGGUUGUAGAAUCCAGAAUAGCGGCUUCUCCAUUAAUCACAUACUGAUUUGAAGCCAGUUCUUCAAUAGUACCUUUGAAAUUCUUCAACAGAGGAUUGAGCAUCA

The list shows a part of the results.

The experiment deals with T1, UNK ZnF1-3. Kind of experiment: nsRBNS (natural sequence RNA bind-n-seq); RBNS binding buffer (assumed for nsRBNS): 25 mM Tris pH 7.5, 150 mM KCl, 3 mM MgCl2, 0.01% Triton X-100, 500 ug/ml BSA, 20 U/ml SUPERase-In, 4 C; UNK is unkempt and MSI1 is Musashi-1; names of the RNAs are library labels; protein concentration not given here; high values mean tight binding.
B1 had a binding signal of 1.23 enrichment R.

Molecule B2 displayed a binding signal of 0.36 enrichment R.

In the case of B3, the binding signal amounted to 1.27 enrichment R.

With B4, the binding signal is 0.701 enrichment R.

Take B5: the binding signal came out at 1.23 enrichment R.

Consider B6, for which the binding signal came to 1.59 enrichment R.

B7 had a binding signal of 1.46 enrichment R.

Regarding B8, the binding signal came out at 1.5 enrichment R.

For B9, the binding signal worked out at 1.52 enrichment R.

B10: the binding signal came out at 0.84 enrichment R.

For the molecule B11, the binding signal was determined as 0.353 enrichment R.

As for B12, the binding signal came to 0.597 enrichment R.

As to B13, the binding signal amounted to 0.869 enrichment R.

On to B14, for which the binding signal worked out at 0.451 enrichment R.

On to B15, for which the binding signal was determined as 0.739 enrichment R.

B16 had a binding signal of 0.456 enrichment R.

B17 showed a binding signal of 0.818 enrichment R.

B18: the binding signal came to 1.12 enrichment R.

As for B19, the binding signal worked out at 0.777 enrichment R.

For the molecule B20, the binding signal stood at 0.974 enrichment R.

B21 gave a binding signal of 0.757 enrichment R.

Take B22: the binding signal came to 0.838 enrichment R.
